The RNAGym collection of RNA variant scans (doi:10.7554/elife.90254)
The source gives no read counts; variants with many changes may rest on few reads.

B1: LINE1-full (parent)
chain: UACGUAGGUGGUUUUCCCCUGAUAGUGCUAAGGGGGCCUGGAAGUUUGGACUGGGCAGAGCUCAACACAGCGUGGCAAAGUGGCUGUGGCUAGACUGCCUCUCUGGAUUCCUCGUCACUCAGCAGGGCAUCUCUGAGAGAAAUGCC

Variants of: B1
Assay: self-cleavage, relative activity (ratio to wild type); higher = more cleavage; in vitro, sequencing; the parent is a self-cleaving ribozyme

Variant	self-cleavage
A30G A59G U100C U134C	0
A30G A64G A77G	0
A30G A64G U73C	0
A30G A64G U143C	1.31
A30G A64U A78U	0.32
A30G A64U A141G U143C	1.05
A30G A64U U104C	0.45
A30G A65G A138G	0
A30G A65G G72C	0.18
A30G A65U A141G	0.57
A30G A67G C90A	0.03
A30G A67G U109C A141G	0
A30G A67G U119A	0.81
A30G A69G U109C U143A	0
A30G A69G U130C	0
A30G A77G A79G	1.53
A30G A77U U81C U85A	0.45
A30G A78G A79G A129G A138G	0
A30G A79G A136G	0.92
A30G C61A G70C U85C	0.12
A30G C61G U112A A117G	0.44

Variant	self-cleavage
A30G C71U U73C	0.71
A30G G35A U91C A141G	0.67
A30G G36C A42G A57U	0.47
A30G G49A U81A A107G	1.93
A30G G58A U96C A117C A136G	0.08
A30G G70A A138G U143C	0.15
A30G G105A U119A	2.76
A30G U39A A69G	1.08
A30G U39A G44A A50G U134C	1.25
A30G U39A U104A	0.84
A30G U39C A124G	0.38
A30G U39C A142G	1.2
A30G U39C U112C A142G	0
A30G U45C G49A U102C	0.74
A30G U45G A59G A69U C76U A121G	0.21
A30G U46A U112C U115C	2.25
A30G U47C C71A	1.44
A30G U52A A65U	0.26
A30G U52C C90U	0.05
A30G U52C C90U U102C A117U C128U A140G	0
A30G U52C U96C	0.89

Variant	self-cleavage
A30G U52C U115C A142G	0
A30G U62A U85A U119C	0.37
A30G U62C A121U	0
A30G U62C G89A	0
A30G U73A A142G	1.38
A30G U73A U100C	1.7
A30G U73A U102C A129G	2.59
A30G U73C C84G	0.44
A30G U73C U81A U85C U109A	0
A30G U85C A121U	0.54
A30G U85C U130A	0.47
A30G U87C C113G A142G	0.45
A30G U96C A140G	0.19
A30G U96C U112C A138G	0
A30G U102A C128U G144A	1.12
A30G U108C A140G	0
A30G U115C A136U A138G	0
A30G U132C A138G	1.08
A30G U132C A141G	1.53
A30U A31U A42G	0.29
A30U A31U A92U	0.55

Variant	self-cleavage
A30U A31U U47A	0.62
A30U A42G A69C	0.08
A30U A43G C51A U115C	0.9
A30U A43G U109C U130C	0.34
A30U A43G U134C	0.84
A30U A43U A50G	0.3
A30U A57G A69U	0.15
A30U A57G U102G	2.63
A30U A64G A79G G114C	0.36
A30U A65U A138C	0.15
A30U A67G A124G	0.32
A30U A69G G89U	0.11
A30U A69G U134C	0.78
A30U A77U U104C A141G	0.85
A30U A78G A136G	1.02
A30U A92G U104C A141G	0
A30U A117G G122A	1.08
A30U C56U A79G A140G	0.12
A30U C68U U132C	0.56
A30U C71G U81A G89A A121G A140G	0.02
